Out of some 50,000 compounds screened, about 800 (1.6%) showed an effect of 50% or more. This is one part of the list.
Each molecule was assayed against Bcl-2-like protein 10 (Homo sapiens) (UniProt Q9HD36) (assay: Phenotype converters, Bcl-B/TR3 peptide binding displacement, primary biochemical FP (AID 1240;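 further: 0% = Bcl-B with tracer peptide and DMSO and 100% = tracer peptide lacking Bcl-B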)). Details: GST-Bcl-B / FITC-TR3 peptide fluorescence polarization; stronger effect = higher value; compound at 3.75 mg/L.
UniProt Q9HD36, sequence (Q9HD36 whole entry, looked up): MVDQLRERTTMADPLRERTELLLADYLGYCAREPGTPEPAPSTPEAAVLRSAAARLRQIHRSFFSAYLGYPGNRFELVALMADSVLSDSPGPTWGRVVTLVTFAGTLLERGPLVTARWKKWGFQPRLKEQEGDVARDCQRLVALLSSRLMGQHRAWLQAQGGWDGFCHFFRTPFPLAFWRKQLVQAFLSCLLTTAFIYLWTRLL

Structure (SMILES)	displacement [%]
CCOC(=O)C(Nc1cccc(F)c1)c1ccccc1 (centres undefined)	5.4
Cc1ccc(N(CC(=O)Nc2c(C)cccc2C)S(=O)(=O)c2ccc(F)cc2)cc1	10.2
CC(=O)C1=C(O)C(=O)N(CC2CCCO2)C1c1ccc(Cl)cc1 (centres undefined)	1.3
NS(=O)(=O)c1ccc(CNC2CC(=O)N(CCc3ccccc3)C2=O)cc1 (centres undefined)	-2.3
COc1cc(NS(=O)(=O)c2ccc(NC(=O)c3c(F)cccc3F)cc2)ncn1	14.5
CCOc1cc(OCC)cc(C(=O)Nc2ccc(N(CC)CC)cc2)c1	3.5
Cc1ccc2oc(-c3cccc(NC(=S)NC(=O)c4ccco4)c3C)nc2c1	5.4
O=C(CCN1C(=O)/C(=C/c2ccccc2Cl)SC1=S)Nc1ncc(Cc2ccccc2Cl)s1	7.9
COc1ccc(NCc2nc3ccccc3n2Cc2ccccc2)cc1	9.3
O=C(c1ccncc1)N1CCN(C(=O)c2cccc(F)c2)CC1	3.8
CCOC(=O)c1ccc(NC(=O)CC(C)=O)cc1	-3.8
COc1cc(-c2nc3sc(C)c(C)c3c(=O)[nH]2)ccc1C	-14.9
CC(C)c1ccc(C2CC(=O)Nc3c2ccc2ccccc32)cc1 (centres undefined)	-5.1
CCOc1cc(/C=N\NC(=O)c2cnccn2)ccc1O	-6.7
COc1ccc(-n2sc3c(c2=S)-c2ccc(OC)cc2NC3(C)C)cc1	16.4
Cc1ccc(C(=O)Oc2ccc(NS(=O)(=O)c3cccc([N+](=O)[O-])c3)cc2)cc1	-0.9
CCOC(=O)c1c(N)sc(C(=O)Nc2ccccc2F)c1C	12.7
COc1ccc(OCC(=O)Nc2sc3c(c2C(N)=O)CCCC3)cc1	11.4
COc1cccc(/C=C2\SC(=S)N(NC(=O)c3ccccc3)C2=O)c1	-0.8
CCOc1cc(OCC)cc(C(=O)Nc2ccc(OC(F)(F)F)cc2)c1	2.5
CCCNS(=O)(=O)c1ccccc1[N+](=O)[O-]	18.9
O=C1/C(=C/c2ccc([N+](=O)[O-])o2)SC(=S)N1Cc1ccccc1	11.6
Cc1cc(NC(=O)CCN2C(=O)/C(=C/c3ccc(F)cc3)SC2=S)no1	19

Structure (SMILES)	displacement [%]
C=CCN1C(=O)/C(=C\c2ccc(OCC)cc2)C(=O)NC1=S	-30
O=c1c2ccccc2nc(SCc2ccc(Br)cc2)n1-c1ccccc1	-14.3
O=C(Nc1c(C(=O)N2CCC(Cc3ccccc3)CC2)cnn1-c1ccccc1)c1ccc(Br)cc1	-6.5
CCCCOc1ccc(/C=C2/C=C(c3ccccc3)OC2=O)cc1	5.7
O=[N+]([O-])c1ccc2nc(Sc3nc4ccccc4[nH]3)sc2c1	-11.3
CCOc1ccc(C(=O)Nc2ccc(NC(=O)c3ccccc3Cl)cc2)cc1Br	-3.3
O=C(Nc1ccccc1Cl)N1CCN(c2ccccn2)CC1	6.2
N#Cc1c(/N=C/c2ccc(O)cc2)sc2c1CCCC2	42
O=C1N=c2ccccc2=C1c1sc(=S)n(NC(=O)c2ccccc2)c1O	10.5
COCCOC(=O)c1c(C)oc2ccc(OC(=O)N3CCOCC3)cc12	12.6
CN(C)c1cccc(C(=O)Nc2cc(Cl)ccc2Cl)c1	-13.6
O=C1c2ccccc2C(=O)C1C1=CC(c2ccccc2)C(c2ccccc2)N=N1 (centres undefined)	-10
CC(C)(C)c1ccc(Oc2coc3cc(O)ccc3c2=O)cc1	4.5
C/C(=C1\SC(=S)NC1=O)c1cccc([N+](=O)[O-])c1	12.7
COc1ccc(N2C(=O)NC(=O)/C(=C/c3ccc(-c4ccc(C(=O)O)cc4)o3)C2=O)cc1	-10.9
CCOCCOC(=O)c1ccc(NC(=O)COc2ccc(Br)cc2)cc1	-2.5
CCOc1ccc(C(=O)Nc2cccc(-c3nc4ccccc4s3)c2)cc1	4.1
COc1cc(OC)c(OC)cc1CN1CCN(Cc2cc(OC)c(OC)cc2Br)CC1	1.2
CSc1ccccc1C(=O)O/N=C(\c1ccncc1)c1ccc([N+](=O)[O-])cc1	-2.5
CC(=O)COc1ccc2c(C)cc(=O)oc2c1	23.3
COc1ccccc1CC(=O)NCc1ccco1	10.3
O=C(Nc1ccc(S(=O)(=O)Nc2nccs2)cc1)c1cc(-c2ccc(Br)cc2)nc2ccccc12	-5.1
C#CCn1cc(/C=C(/C#N)C(=O)Nc2ccc(OC)cc2)c2ccccc21	-10.8

Structure (SMILES)	displacement [%]
COCCNC(=O)CN(c1ccc(OC)cc1)S(C)(=O)=O	4.5
Cc1cc(OCC(=O)Nc2c(C(C)C)cccc2C(C)C)cc(C)c1Cl	12.8
Cc1nc(SCC(=O)OCN2C(=O)c3ccccc3C2=O)n[nH]1	13.6
CC(C)(C)c1ccc(C2/C(=C(\O)c3ccc(F)cc3)C(=O)C(=O)N2c2nncs2)cc1 (centres undefined)	11.3
Cc1cc(/C=N/NC(N)=O)c(C)n1-c1cccc(Cl)c1	-6.3
CC(=O)C(C(C)=O)C1c2ccccc2Oc2ccc(Cl)cc21 (centres undefined)	9.1
COc1cccc(C2(c3cccc(OC)c3)CC2C(=O)Nc2cccc3ccccc23)c1 (centres undefined)	19.4
COc1cc(C2Nc3ccc(C(=O)c4ccccc4)cc3NC3=C2C(=O)CCC3)ccc1O (centres undefined)	-3.1
Cc1nc(SCc2ccc([N+](=O)[O-])cc2)nc2ccccc12	0.4
CN1CCN(C(=O)/C(=C/c2cccc([N+](=O)[O-])c2)NC(=O)c2cccs2)CC1	4.1
COc1ccc(C(=O)Nc2cc3nn(-c4ccc(C)cc4)nc3cc2C)cc1	-7.9
Cc1ccc(N2C(=O)CC(N3CCN(C)CC3)C2=O)cc1 (centres undefined)	3.6
CCOC(=O)c1sc(NC(=O)COc2ccccc2C)c(C(=O)OCC)c1C	-10.4
O=C(O)c1ccc(NC(=O)c2ccc(Cl)cc2)cc1	-3.6
COc1ccc(CCNC(=O)c2cccc(Br)c2)cc1OC	-11.8
CC1(C)Cc2c(c(-c3ccccc3)[nH]c(=O)c2C#N)CO1	-2.3
COC(=O)c1cc(Nc2nc3ccccc3nc2NS(=O)(=O)c2ccccc2)ccc1Cl	158
Cc1ccccc1/C=C1\SC(=NCc2ccccc2)N(Cc2ccccc2)C1=O	15.8
CC(=O)Nc1ccc(NC(=O)c2ccc(CN3CCOCC3)cc2)cc1	-22.6
CC(=O)Nc1ccc(NC(=O)N2CCOCC2)cc1	14.1
CCc1cc(=O)oc2cc(OCC(=O)C(C)(C)C)ccc12	13.1
COc1ccc(OC)c(NC(=S)NC(NC(C)=O)C(Cl)(Cl)Cl)c1 (centres undefined)	-6.3
COC(=O)C1C(c2ccccc2)=NN(c2ccccc2)C1C(=O)OC (centres undefined)	16.9
